In PubChem BioAssay AID1508623 (National Center for Advancing Translational Sciences (NCATS), 2021):
Hit rate of the full screen: of about 48,000 compounds, about 450 (0.94%) were called active. Not shown: some 19% with an inconclusive outcome. Calls follow the shape of the dose curve; as a rule, active = well fitted inhibition curve with a large enough effect; inconclusive = small, poorly fitted or top-dose-only effect; inactive = no such curve, though single readings can be large or run the other way. The list shows a part of the results.

assay: Primary qHTS for Identification of Small Molecule Inhibitors of Huntingtin Promoter Activity; conditions: HEK293 HTT promoter firefly luciferase reporter (activity 0% = vehicle and -100% = no light), 24 h; series mostly up to 57.5 µM; activity change, negative = inhibition: at the top concentration; also: nearly all actives have a fitted effect of over 50% in size
Outline: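 HEK293 Fluc reporter, 2,500 cells/well, 24 h pre-culture; cpds up to 57.5 uM final, 24 h 37 degrees C; Dual-Glo, 10 min RT; normalized vehicle = 0%, zero RLU = -100%.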

Row | Structure (SMILES) | activity change, negative = inhibition
1 | CCCN(CCC)C(=O)Cn1c(=O)n(CCCCCC(=O)Nc2ccccc2)c(=O)c2sccc21 | inactive: -10.1%
2 | COc1ccc2c(c1)c1c(c(=O)n(-c3ccccc3C)c(=O)n1CC(N)=O)n2C | inactive: -5.54%
3 | COC(=O)c1ccc(NC(=O)Cn2ccn3nc(-c4ccc(OC)cc4)cc3c2=O)cc1 | inactive: 34%
4 | Cc1ccc(CNC(=O)CCc2c(C)nc3c(-c4ccc(F)cc4)c(C)nn3c2C)cc1 | inactive: -13.7%
5 | Cc1cccc(OCC(=O)Nc2cccc(C(=O)OCc3cc(=O)n4nc(C(C)C)sc4n3)c2)c1 | inactive: 20.1%
6 | Cc1c(C(=O)OCc2ccccc2)[nH]c2c1C(=O)CC(c1ccc(N(C)C)cc1)C2 (stereo unspecified) | inactive: -10.8%
7 | Cc1nn2c3c(cnc2c1-c1ccc(Cl)cc1)C(=O)CC(c1ccc(C(C)C)cc1)C3 (stereo unspecified) | inactive: -12%
8 | Cc1ccc(S(=O)(=O)C(CNC(=O)COc2ccccc2)c2cccs2)cc1 (stereo unspecified) | inactive: -27.9%
9 | COC(=O)C1=C(C)NC(=O)NC1c1cn(-c2ccccc2)nc1-c1ccc(OC)c(Br)c1 (stereo unspecified) | inactive: -15.5%
10 | COc1cccc(-n2c(SCC(=O)c3ccccc3)nc3c([nH]c4ccccc43)c2=O)c1 | inactive: 1.91%
11 | O=c1oc2cc(O)ccc2cc1-c1nc(-c2ccc(Cl)c(Cl)c2)cs1 | inactive: -11%
12 | COc1ccc(NC(=O)C(NC(=O)Cc2cccs2)c2ccc(OC)cc2)cc1 (stereo unspecified) | inactive: -7.14%
13 | Cn1c2c(c(=O)n(C)c1=O)C(c1cccc(O)c1)CC(=O)N2 (stereo unspecified) | inactive: 6.13%
14 | CCc1ccc(CN(C(=O)c2ccc(OC)cc2)C2CCS(=O)(=O)C2)cc1 (stereo unspecified) | inactive: -20.5%
15 | Cc1noc(C)c1S(=O)(=O)Nc1ccc(C(=O)Nc2ccc(C(C)C)cc2)cc1 | inactive: -26.3%
16 | COc1cc2c(cc1NC(=O)COc1ccc(Br)c(C)c1)oc1ccccc12 | inactive: 1.27%
17 | CCC12CN3CC(CC)(CN(C1)C3c1cccc(OC)c1O)C2=O (stereo unspecified) | inactive: -10.8%
18 | COc1ccc(-c2c(C)c3ccc(O)c(CN4CCCCC4)c3oc2=O)cc1OC | inactive: -14.4%
19 | Cc1ccc2nc(N(Cc3cccnc3)C(=O)c3ccco3)sc2c1 | inactive: 27.9%
20 | Cc1cccc(N2CCN(C(=O)c3cn(C)c4ccc(S(=O)(=O)N(C)C)cc4c3=O)CC2C)c1 (stereo unspecified) | inactive: -0.777%
21 | CCOC(=O)c1c(NC(=O)CCCOc2ccc(C)cc2)sc2c1CCC(C)C2 (stereo unspecified) | inactive: -4.42%
22 | CCOC(=O)Cn1c(=O)n(-c2ccccc2OC)c2nc(-c3ccccc3)nc(C(N)=O)c21 | inactive: -18.5%
23 | CCc1nnc(SCC(=O)Nc2ccc(Cl)cc2F)c2cc3occc3n12 | inactive: 6.72%
24 | CCn1c(C(=O)NCc2ccc(C)cc2)cc2sc(Cl)cc21 | inactive: -27.5%
25 | CCOCCc1nn2c(=O)cc(COC(=O)COc3ccc(C)c(C)c3)nc2s1 | inactive: 2%
26 | COc1cn(CC(=O)Nc2c(C)cc(C)cc2C)c(CN2CCCCC2)cc1=O | inactive: -14.9%
